Reference: the supplement of paper PMC8285479
Counter-ions that a name gives are not always drawn. ± gives the standard deviation of the averaged measurements. Whole data set: some 1,900 compounds, median “normalised cell viability (NPI; 0 = phenylarsine oxide control, 1 = DMSO control)” near 1, cut for the lowest 2% near 0.039. Some of the results follow.

Tested on: NCI-H1944
Assay: normalised cell viability (NPI; 0 = phenylarsine oxide control, 1 = DMSO control) (fraction of DMSO control); NCI-H1944 is a non-small cell lung cancer line; higher = more viable cells (less compound toxicity)
Conditions: 6 days
[1] = glucocorticoid arm: hydrocortisone 2.75 uM co-treatment, compound 1 µM
[2] = glucocorticoid arm: hydrocortisone 2.75 uM co-treatment, compound 5 µM
[3] = glucocorticoid arm: hydrocortisone 2.75 uM pre-treated 2 days and continued, compound 1 µM
[4] = glucocorticoid arm: hydrocortisone 2.75 uM pre-treated 2 days and continued, compound 5 µM
[5] = glucocorticoid arm: vehicle, compound 1 µM
[6] = glucocorticoid arm: vehicle, compound 5 µM
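Note: CTB read-out in 384-well plates, mean of triplicate wells, normalised per plate against 1 µM phenylarsine oxide and 0.1% DMSO, compounds added 24 h after seeding.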

SMILES | normalised cell viability [1] | normalised cell viability [2] | normalised cell viability [3] | normalised cell viability [4] | normalised cell viability [5] | normalised cell viability [6]
c1ccc2c(c1)[I+]c1ccccc1-2 [Diphenyleneiodonium chloride] | 0.45 ± 0.015 | 0.0556 ± 0.0019 | 0.649 ± 0.014 | 0.0883 ± 0.044 | 0.232 ± 0.015 | 0.00555 ± 0.0077
COc1ccc2c(c[n+](C)c3c4cc5c(cc4ccc23)OCO5)c1OC [Chelerythrine chloride] | 1.02 ± 0.01 | 0.184 ± 0.022 | 1.023 ± 0.0058 | 1.04 ± 0.042 | 0.995 ± 0.004 | 0.365 ± 0.035
CNc1ccc2oc(C[C@H]3O[C@@]4(CC[C@H]3C)O[C@H]([C@H](C)C(=O)c3ccc[nH]3)[C@H](C)C[C@H]4C)nc2c1C(=O)O [Calcimycin] | 0.909 ± 0.018 | 0.0265 ± 0.002 | 1.01 ± 0.013 | 0.0205 ± 0.0037 | 0.91 ± 0.036 | 0.0377 ± 0.014
CN(N=O)c1cc(O)ccc1O [Dephostatin] | 0.9973 ± 0.0031 | 0.999 ± 0.01 | 0.997 ± 0.015 | 0.9877 ± 0.005 | 0.987 ± 0.0027 | 0.9903 ± 0.0065
CC(N)Cc1c[nH]c2ccc(O)cc12 (stereo not drawn) [alpha-Methyl-5-hydroxytryptamine maleate] | 0.984 ± 0.016 | 0.959 ± 0.017 | 0.9953 ± 0.0055 | 1.01 ± 0.092 | 0.9843 ± 0.0032 | 0.983 ± 0.012
N[C@H](CCCCCP(=O)(O)O)C(=O)O [D(-)-2-Amino-7-phosphonoheptanoic acid] | 0.9967 ± 0.0058 | 1.01 ± 0.013 | 0.997 ± 0.003 | 1.01 ± 0.018 | 0.997 ± 0.011 | 1.01
Oc1cc2c(cc1O)[C@H]1c3ccccc3CN[C@@H]1CC2 (racemic) [Dihydrexidine hydrochloride] | 1.002 ± 0.0068 | 0.995 ± 0.005 | 1.002 ± 0.0076 | 0.994 ± 0.018 | 0.9917 ± 0.0059 | 0.9897 ± 0.0031
c1ccc(C2(c3ccccc3)CC2C2=NCCN2)cc1 (stereo not drawn) [Cibenzoline succinate] | 0.992 ± 0.013 | 0.994 ± 0.027 | 1.003 ± 0.0058 | 1.02 ± 0.078 | 1.007 ± 0.0058 | 1.01 ± 0.01
C[C@]12N[C@H](Cc3ccccc31)c1ccccc12 [MK-801 (Dizocilpine)] | 1.02 ± 0.01 | 1.03 ± 0.017 | 1.02 ± 0.017 | 1.04 ± 0.032 | 1.017 ± 0.0058 | 1.01 ± 0.01
CCC(=O)CCCCC[C@@H]1NC(=O)[C@H]2CCCCN2C(=O)[C@H]([C@@H](C)CC)NC(=O)[C@H](Cc2cn(OC)c3ccccc23)NC1=O [Apicidin] | 0.387 ± 0.16 | 0.954 ± 0.041 | 0.644 ± 0.15 | 0.983 ± 0.03 | 0.0476 ± 0.028 | 0.96 ± 0.022
O=C1CCCN1CC#CCN1CCCC1 [Oxotremorine sesquifumarate salt] | 1.007 ± 0.0058 | 1.02 ± 0.027 | 0.993 ± 0.019 | 1.03 ± 0.072 | 1.003 ± 0.0058 | 1.005 ± 0.0092
NC(Cn1oc(=O)[nH]c1=O)C(=O)O (single isomer, unassigned; (+)) [(+)-Quisqualic acid] | 1.01 ± 0.01 | 0.973 ± 0.028 | 1.01 ± 0.031 | 1.01 ± 0.021 | 1.01 ± 0.012 | 1.005 ± 0.0087
NNC(=O)c1ccc(O)cc1 [4-Hydroxybenzhydrazide] | 1.01 ± 0.013 | 0.992 ± 0.015 | 0.996 ± 0.015 | 0.989 ± 0.011 | 1.006 ± 0.0063 | 1.001 ± 0.0085
